# PubChem BioAssay AID1345083 (National Center for Advancing Translational Sciences (NCATS), 2018)
# Hit rate of the full screen: of about 94,000 compounds, about 6,200 (6.6%) were called active. This list was built around the results that the source calls inconclusive (neither active nor inactive); the mix of calls is not that of the screen. The call rests on the fitted dose curve; in most records, active means well fitted inhibition curve with a large enough effect; inconclusive means small, poorly fitted or top-dose-only effect; inactive means flat fitted curve, though single readings scatter. A potency beside an inconclusive call is a rough fit, not a confirmed value.
# Assay: Cytotoxic Profiling in HEK 293 Cell Line of Diverse Libraries Using Quantitative High-Throughput Screening; further: nearly all actives have a fitted effect of over 60% in size
# Settings: HEK 293 viability, ATP luminescence (CellTiter-Glo), 48-72 h; series mostly up to 115 µM
# Outline: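 HEK 293 cells seeded at 250 cells/well were exposed to compound for 48 or 72 hr at 37 degree Celsius. Viability taken as ATP content by CellTiter-Glo luminescence.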
# Potency means the concentration at half of the fitted maximal effect; tags describe the fitted curve by direction and shape.
row,SMILES,Potency
1,Cn1ncc2c(C(=O)NCCc3ccccc3F)cc(-c3cccnc3)nc21,"inconclusive: 70.8 µM [inhibitor, partial curve, poor fit]"
2,COC(=O)[C@@H]1Cc2ncn(Cc3ccccc3)c2CN1C(=O)C1CCCCC1,"inconclusive: 100 µM [inhibitor, partial curve, poor fit]"
3,COc1ccc(-c2nc(-c3c(C)noc3C)cc3c2cc(C)n3CCN(C)C)cc1OC,active: 89.1 µM
4,C#CCNC(=O)c1cn2cc(-c3cccc(OC)c3)sc2n1,"inconclusive: 63.1 µM [inhibitor, full curve]"
5,Cc1nn(-c2ccccc2)c2c1C(C)N(C1CCCN([S+](=O)([O-])c3cccs3)C1)C2=O (stereo unspecified),inactive
6,CCCc1nnc(C[C@@H]2C[C@@H](C(C)C)[C@H](CN3CC[C@H](NC(C)=O)C3)C=C2C)o1,"inconclusive: 126 µM [inhibitor, single point]"
7,COc1ccc(C(=O)NC2CCN(c3cc(-c4cccs4)[nH]n3)C2)cn1 (stereo unspecified),"inconclusive: 89.1 µM [inhibitor, single point]"
8,Cc1noc(-c2ccco2)c1C(=O)NCc1cccc(Cl)c1,"inconclusive: 79.4 µM [inhibitor, partial curve, poor fit]"
9,COCC1CN(C(=O)Cn2nc(C(F)(F)F)cc2C)CC12CCNCC2 (stereo unspecified),inactive
10,COc1cccc(CC(=O)N2CCC3(CC2)OC(=O)N(Cc2ncccn2)C3(C)c2ccccc2)c1 (stereo unspecified),inactive
11,COc1cccc(-c2ccc(C(=O)N3CCC(NC(=O)c4ccc(Cl)nc4)CC3)cc2)c1,"inconclusive: 10 µM [inhibitor, full curve, poor fit]"
12,O=C(NC1CCN(c2cc(C(F)(F)F)ncn2)CC1)c1ccc(F)cc1,inactive
13,COc1ccc(NC(=O)[C@@H]2C[C@H](c3ccc(F)cc3)N([S+](=O)([O-])C3CC3)C2)cc1OC,"inconclusive: 89.1 µM [inhibitor, single point]"
14,COCCCNC(=O)[C@@H]1Cc2cn(Cc3nccn3C)c3cccc(c23)[C@H](CC(C)C)N1,"inconclusive: 50.1 µM [inhibitor, full curve, poor fit]"
15,CCc1nc(-c2c3n(c(=O)n(Cc4ccccc4OC)c2=O)CCCCC3)no1,inactive
16,CN1C[C@@H](NC(=O)CC(C)(C)C)C[C@H]1c1nc(-c2ccc3c(c2)OCO3)no1,"inconclusive: 79.4 µM [inhibitor, partial curve, poor fit]"
17,CN(C)CCOCC1(C)COc2ccc(C(=O)NCc3cccc(F)c3)cc2N1 (stereo unspecified),"inconclusive: 112 µM [inhibitor, single point]"
18,CN(C)c1cccc(-c2ncc3c(n2)OCCN(c2ccccc2)C3=O)c1,"inconclusive: 63.1 µM [inhibitor, partial curve, poor fit]"
19,O=C1CC2(CCN(CC3CCCCC3)CC2)Oc2cc(Cl)ccc21,"inconclusive: 50.1 µM [inhibitor, partial curve, poor fit]"
20,Cc1oc2ccn(Cc3ccc(F)cc3)c(=O)c2c1C(=O)NC1CCCCCC1,active: 35.5 µM
21,CCCn1ccc2oc(C)c(C(=O)NCc3ccc(CC)cc3)c2c1=O,"inconclusive: 50.1 µM [inhibitor, partial curve, poor fit]"

row,SMILES,Potency
1,CC(C)c1ccc(CC(=O)N2CCCc3ncc(C(=O)NCCc4cnc[nH]4)cc32)cc1,"inconclusive: 100 µM [inhibitor, partial curve]"
2,COc1ccc(CNC(=O)N2CCOc3ccc(N(C)C)cc3C2)cc1,"inconclusive: 89.1 µM [inhibitor, single point]"
3,CCCNc1cc(N2CCC(CCC(=O)Nc3cc(C)ccc3OC)CC2)ncn1,"inconclusive: 50.1 µM [inhibitor, partial curve, poor fit]"
4,CC(C)CCN1C(=O)CC[C@]2(C(=O)N3CCN(C(C)C)CC3)CCCC[C@@H]12,inactive
5,Nc1nc(-c2cccc(CN3CCOCC3)c2)cc(N2CCCC2)n1,inactive
6,Cc1cc(C(=O)N2CCC(c3nc(C4CCOCC4)no3)CC2)nn1C,inactive
7,Cc1ccc(-n2nc(C)c([C@H]3C=C[C@@H](O)C3)c2C)cc1Cl,"inconclusive: 100 µM [inhibitor, partial curve, poor fit]"
8,CNC(=O)[C@@H]1C[C@H](Oc2ccccc2)CN1C(=O)Cc1cccc(F)c1,inactive
9,CC(C)c1nc2c(c(-c3ccc(Cl)cc3)n1)CCN(C(=O)c1ccc(C(F)(F)F)cc1)CC2,"inconclusive: 63.1 µM [inhibitor, partial curve, poor fit]"
10,Cn1ncc2c(C(=O)NCc3ccc(C(F)(F)F)cc3)cc(-c3ccc(C(F)(F)F)cc3)nc21,inactive
11,COc1cccc([S+](=O)([O-])N2CCC3(CC2)C(=O)NN=C3c2ccncc2)c1,"inconclusive: 35.5 µM [inhibitor, full curve]"
12,Cc1ccc2c(C(=O)N3CCN(CC(C)C)CC3)cc(NC(=O)C3CCC3)cc2n1,inactive
13,C1CNCC(c2nc(C3CCOCC3)no2)C1 (stereo unspecified),inactive
14,CC(NC(=O)c1cn(C2CCC(N)CC2)nn1)c1ncnn1C (stereo unspecified),"inconclusive: 28.2 µM [inhibitor, full curve]"
15,CC(C)c1noc(-c2cn(C3CCCN(C(=O)c4ccccc4)C3)nn2)n1 (stereo unspecified),"inconclusive: 44.7 µM [inhibitor, partial curve, poor fit]"
16,CC1=C[C@@H](CNC(=O)C2CCCCC2)[C@H](C(C)C)C[C@H]1Cc1nc2ccc(C)cc2[nH]1,"inconclusive: 17.8 µM [inhibitor, full curve, poor fit]"
17,Clc1ccc2oc([C@H]3CCN(Cc4cccs4)C3)nc2c1,"inconclusive: 100 µM [inhibitor, partial curve, poor fit]"
18,COc1ccccc1-c1ccc2ncc(Nc3ccc(C(N)=O)cc3)n2n1,"inconclusive: 89.1 µM [inhibitor, partial curve, poor fit]"
19,COc1ccc(C2(C(=O)NCC(=O)N3CCCCCCNC(=O)CC3c3ccccc3)CC2)cc1 (stereo unspecified),inactive
20,CN(C)CC(C)(C)NC(=O)c1csc2nc(-c3cccc(C(F)(F)F)c3)cn12,active: 44.7 µM
